# From PubChem BioAssay AID488969 (Vanderbilt High Throughput Screening Facility, 2010)
# Whole data set: some 110,000 compounds, median “z-score” near -0.1, cut for the highest 2% near 2. Some of the results follow. Active and inactive are the calls of the source.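 How the source made its calls: active means z-score in the third read window above 3 or below -3; inactive means the rest.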
# Target: Metabotropic glutamate receptor 8 (Rattus norvegicus) (UniProt P70579)
# Test: rat mGluR8 modulators via GIRK flux, primary screen, cell-based, thallium flux, HTS (AID 488969)
# Conditions: HEK293 rat mGluR8, GIRK (G protein-gated inwardly rectifying potassium channel) thallium flux, FluoZin2; at 10 µM; stronger effect = higher value; submaximal glutamate (EC20) added with thallium
# UniProt P70579, sequence (P70579 whole entry, looked up): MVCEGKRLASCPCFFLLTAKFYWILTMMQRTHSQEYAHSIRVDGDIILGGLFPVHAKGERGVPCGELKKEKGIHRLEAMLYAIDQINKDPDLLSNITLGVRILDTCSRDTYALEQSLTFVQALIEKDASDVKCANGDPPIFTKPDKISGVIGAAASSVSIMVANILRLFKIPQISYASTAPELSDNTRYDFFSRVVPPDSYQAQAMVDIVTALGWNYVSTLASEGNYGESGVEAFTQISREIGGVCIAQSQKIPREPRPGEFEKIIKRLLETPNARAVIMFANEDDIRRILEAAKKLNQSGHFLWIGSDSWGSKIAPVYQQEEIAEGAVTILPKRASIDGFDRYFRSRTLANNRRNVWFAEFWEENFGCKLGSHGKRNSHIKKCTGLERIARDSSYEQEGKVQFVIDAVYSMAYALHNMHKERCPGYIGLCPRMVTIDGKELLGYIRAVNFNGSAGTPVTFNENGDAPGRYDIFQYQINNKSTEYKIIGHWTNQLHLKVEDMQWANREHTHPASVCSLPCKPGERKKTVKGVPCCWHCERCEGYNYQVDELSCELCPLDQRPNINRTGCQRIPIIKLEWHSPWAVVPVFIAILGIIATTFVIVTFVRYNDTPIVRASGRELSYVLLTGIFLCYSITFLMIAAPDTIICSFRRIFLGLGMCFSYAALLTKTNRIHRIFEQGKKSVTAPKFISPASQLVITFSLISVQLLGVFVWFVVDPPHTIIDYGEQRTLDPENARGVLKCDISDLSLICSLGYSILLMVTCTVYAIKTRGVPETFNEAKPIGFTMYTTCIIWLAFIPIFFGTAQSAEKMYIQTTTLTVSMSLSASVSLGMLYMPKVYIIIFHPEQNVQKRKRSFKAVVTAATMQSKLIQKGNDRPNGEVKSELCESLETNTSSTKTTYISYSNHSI
row,SMILES,z-score
1,COc1ccc(/C=N/NC(=O)Nc2cccc3nsnc23)cc1OC,-0.147
2,CCN1CCN(CC(=O)c2c(C)n(C)c3ccc(OC)cc23)CC1,-0.0747
3,CCCOc1ccccc1-n1sc2c(c1=S)-c1cc(OC)cc3c1N(C(=O)C3=O)C2(C)C,0.501
4,Cc1cccc(OCCCC(=O)Nc2ccc(S(=O)(=O)N3CCCC3)cc2)c1,-0.312
5,CN1C(=O)C2(C(C#N)=C(N)N(c3cc(Cl)cc(Cl)c3)C3=C2C(=O)CC(C)(C)C3)c2ccccc21 (stereo not given),-0.762
6,Cc1c(CNC(=O)c2cnn3c2NC(c2ccc(Br)cc2)CC3C(F)(F)F)cnn1C (stereo not given),0.0271
7,CCOc1ccc(C2=C/C(=C/c3cccnc3)C(=O)O2)cc1,-0.24
8,Cc1ccc(-c2nc(CS(=O)CC(=O)NCc3ccccc3)c(C)o2)cc1 (stereo not given),-0.894
9,CN(C(=O)c1ccc(=O)[nH]c1)C1(C(=O)NC2CCCCC2)CCCCC1,-0.0324
10,COCCCNC(=S)NNC(=O)Cn1nc(C)c(Br)c1C,-0.277
11,CCn1c(=O)cc(SCC(=O)NCC2CCCO2)c2ccccc21 (stereo not given),0.0159
12,O=C(NNc1nc2ccccc2s1)Nc1ccccc1,-0.265
13,OC(c1ccc(Cl)cc1)C(O)c1nc2ccccc2[nH]1 (stereo not given),-0.311
14,COc1ccc(C(=O)Cn2nnc(-c3ccccc3NC(=O)C(F)(F)F)n2)cc1,0.168
15,COc1ccc(/C=C(\C#N)C(=O)OCC(=O)Nc2c(C)cccc2C(C)C)cc1,-0.141
16,Nc1n[nH]c2c1C1(CCCC1)Cc1ccccc1-2,-0.655
17,Cc1cc2c(cc1C)NC(c1cccnc1)C1=C(CC(C)(C)CC1=O)N2 (stereo not given),0.0448
18,CC(C)NS(=O)(=O)c1ccc(CCC(=O)Nc2ccc3c(c2)OCCO3)cc1,0.0498
19,C#CC[N+]1(CC#Cc2ccccc2)CCOCC1,-0.041
20,Cc1nc2c3ccccc3nc(SCC(=O)c3ccc(Cl)cc3)n2n1,-0.148
21,CC(=O)C1=C(O)C(=O)N(CCN2CCOCC2)C1c1ccccc1 (stereo not given),-0.155
22,CC1(C)CC2CC(C)(CN2C(=S)NC(=O)c2ccccc2Cl)C1 (stereo not given),active: 8.8

row,SMILES,z-score
1,O=C(NCC(=O)N1CCCC1)c1cccs1,0.211
2,Cc1onc(-c2ccccc2)c1C(=O)n1nnc2ccccc21,-0.539
3,O=C(CN1CCOCC1)NCCC12CC3CC(CC(C3)C1)C2,1.04
4,O=C1NC(c2ccccc2)=NC1(NS(=O)(=O)c1ccc(Cl)cc1)C(F)(F)F (stereo not given),-0.195
5,CC1(C)Cc2noc(N)c2C(C)(C)N1OC(=O)c1scc2c1OCCO2,-1.21
6,CN1CCC(N(C)CC(=O)Nc2ccccc2N2CCOCC2)CC1,-0.342
7,Cc1ccc(SCCC(=O)Nc2ccccc2C(=O)NC(C)C)cc1,-0.31
8,O=C(NC1CCCc2ccccc21)c1ccc(Br)cc1 (stereo not given),1.55
9,CCN(CC)CCNC(=O)CCn1c(=S)[nH]c2cc3c(cc2c1=O)OCO3,-0.266
10,CCN1CCN(C(c2cccc(OC)c2)c2sc3nc(C)nn3c2O)CC1 (stereo not given),-0.106
11,Clc1ccc(OCc2nnc(-c3ccccc3Br)o2)c(Cl)c1,-1.3
12,Cc1cc(C)c(C)c(S(=O)(=O)NCc2cccnc2)c1C,0.134
13,O=C(NC1(C(F)(F)F)N=C2SCCN2C1=O)C1CCCCC1 (stereo not given),0.214
14,CC(CCc1ccccc1)NC(=O)COC(=O)C1CCC(C(C)(C)C)CC1 (stereo not given),-0.126
15,O=S(=O)(NC1CC1)c1ccc(S(=O)(=O)N2CCCC3(CCCCC3)C2)cc1,0.413
16,O=C1OC(Nc2nccs2)c2ccccc21 (stereo not given),-0.00869
17,CC(C)C1=CC(=NS(=O)(=O)c2cccc([N+](=O)[O-])c2)C=C(C(C)C)C1=O,-0.321
18,O=C1c2ccccc2C(Nc2ccc(Cl)cc2)N1CCN1CCOCC1 (stereo not given),-0.147
19,COc1cccc(Oc2coc3c(CN4CCOCC4)c(O)ccc3c2=O)c1,0.337
20,CC(=O)C1=C(O)C(=O)N(CCC(=O)O)C1c1ccccc1Cl (stereo not given),-0.0507
21,O=C(NC1CCCC1)c1ccc(CN2CCOCC2)cc1,-0.173
22,Nc1nnc(COc2ccccc2)s1,-0.0878

row,SMILES,z-score
1,CC(NC(=O)c1ccc(Cn2cc([N+](=O)[O-])cn2)cc1)c1ccccc1 (stereo not given),-0.0865
2,COc1ccc(NC(=O)/C(Cl)=C(/Cl)S(=O)(=O)Cc2ccc(C)cc2)cn1,-0.418
3,CCOc1ccc(-c2nc(CSc3nnc(C)s3)cs2)cc1OC,-0.138
4,COc1cccc(/C=N/NC(=O)CCCc2ccc(OC)c(C)c2)c1,-0.14
5,Cc1n[nH]c(C)c1S(=O)(=O)N1CCC(C(=O)N2CCn3c2nc2ccccc23)CC1,-0.214
6,CC1Cc2ccccc2N1C(=O)Cn1cc([N+](=O)[O-])cn1 (stereo not given),0.028
7,CC1CN(C(NC(=O)C(C)(C)C)C(Cl)(Cl)Cl)CC(C)O1 (stereo not given),-0.239
8,COc1ccc2c(c1)C(=O)C(=O)N2,0.231
9,O=C(NCCCN1CCCC1=O)c1cccnc1,0.295
10,Cc1ccc(S(=O)(=O)N(C)C)cc1NC(=O)COC(=O)c1ccc2c(c1)OCO2,1.63
11,O=C(NC1(C(F)(F)F)C(=O)Nc2c1c(=O)[nH]c(=O)n2-c1ccc(F)cc1)c1cccnc1 (stereo not given),-0.0735
12,CCn1c(NC(=O)c2ccc(COc3ccc(C)cc3[N+](=O)[O-])o2)nc2ccccc21,-0.789
13,CCOC(=O)c1cc2c(=O)n3cccc(C)c3nc2n(CCOC)c1=NC(=O)c1ccncc1,0.508
14,O=C(Nc1ccc(Cl)cc1)N1CCCN(Cc2ccccc2F)C1,-0.218
15,COc1ccc(C(=O)Nc2ccc(S(=O)(=O)Nc3onc(C)c3C)cc2)cc1,0.375
16,Cc1ccc(-c2cc(C(=O)N/N=C/c3c(C)nn(C)c3C)c3ccccc3n2)cc1C,-0.146
17,COC(=O)C1=C(C)NC(=O)NC1c1cccc(OC)c1OCc1ccccc1 (stereo not given),-0.318
18,CC1CCCC(C)N1C(=O)COC(=O)c1ccc[nH]c1=O (stereo not given),0.601
19,CCCCOC(=O)NCN1C(=O)C2C3C=CC(C3)C2C1=O (stereo not given),0.62
20,CCn1c(COc2ccccc2C)nnc1SCC(=O)N1CCCCC1,0.371
21,Cc1ccc(Cn2ccc(NC(=O)c3cc(C)on3)n2)cc1,-0.0436
22,COc1cc(/C=C(/C(=O)c2cccs2)c2nc3ccccc3[nH]2)ccc1O,0.561

row,SMILES,z-score
1,O=C(NN1CCOCC1)c1cc(-c2cccc(Cl)c2)nc2ccccc12,-0.126
2,O=c1cc(N2CCN(c3cccc(Cl)c3)CC2)[nH]c(=O)n1C1CCCCC1,-0.16
3,CCOC(=O)C1(Cc2ccc(O)cc2)NC(c2ccccc2F)C2C(=O)N(C)C(=O)C21 (stereo not given),-0.227
4,CCOC(=O)C(C)Sc1nc2ccccc2c(=O)n1CC (stereo not given),-0.22
5,COC(=O)COc1nsnc1N1CCOCC1,0.175
6,O=CNCC(=O)NC1CCCCCC1,-0.213
7,O=C(O)c1cc(Cl)c(Cl)cc1C(=O)Nc1cccc2cccnc12,-0.462
8,CCN(CC)S(=O)(=O)c1cc(-c2nnc(-c3ccc(Br)cc3)o2)ccc1Br,-0.294
9,Cc1nc2scc(-c3ccc(Cl)cc3)c2c(=O)o1,0.315
10,CCN1CCN(C(=S)Nc2ccc(Cl)c(Cl)c2)CC1,-0.229
11,CCOC(=O)c1c(C)[nH]c(C(=O)COC(=O)/C=C/c2ccc3c(c2)OCO3)c1C,0.00271
12,COc1ccc(C(=O)Oc2c(CN3CCOCC3)cc(Cl)c3cccnc23)cc1OC,-0.19
13,COc1ccc(OC)c(NS(=O)(=O)c2ccc(NC(=O)C3COc4ccccc4O3)cc2)c1 (stereo not given),0.498
14,CC(C)(C)NS(=O)(=O)c1ccc(NC(=O)C(Sc2ccccc2)c2ccccc2)cc1 (stereo not given),0.111
15,O=C(Nc1sc2c(c1C(=O)NCc1cccnc1)CCCC2)c1ccco1,-1.12
16,CCOC(=O)c1c[nH]c2c(C)cc(C)cc2c1=O,0.0125
17,O=C(CNC(=O)c1ccccc1Cl)N/N=C/c1ccc([N+](=O)[O-])s1,-0.607
18,Cc1ccccc1-c1ccc(Nc2ccc(N3CCOCC3)cc2)nn1,0.369
19,O=C1CC(N2CCC(c3nc4ccccc4o3)CC2)C(=O)N1Cc1cccs1 (stereo not given),0.689
20,O=C(c1cccs1)N1CCN(C(=O)c2ccco2)c2ccccc2C1,0.586
21,CSc1nc(NC(C)=O)nc(C)c1Cl,1.54
22,Cc1cc(C)cc(Nc2nc3c(S(=O)(=O)c4ccccc4)nnn3c3ccccc23)c1,-0.244

row,SMILES,z-score
1,Cc1[nH]c(=O)[nH]c(=O)c1S(=O)(=O)N1CCN(c2ccccc2F)CC1,0.1
2,O=C(O)CCC(=O)NC1CCCCC1NC(=O)CCC(=O)O (stereo not given),2.2
3,CCc1ccc(C2=C/C(=C/c3cccnc3)C(=O)O2)cc1,-0.0742
4,O=C(Cn1cc(C(=O)C2CC2)c2ccccc21)NCc1ccc2c(c1)OCO2,-0.87
5,Cc1cc2cc3c(cc2nc1SCC(=O)N1c2ccccc2CC1C)OCO3 (stereo not given),-0.377
6,CCC(C)Sc1nc(C)nc2c1c(=O)n(C)c(=O)n2C (stereo not given),-0.806
7,S=C(Nc1cccc2ccccc12)NN1CCOCC1,0.136
8,COc1cc(/C=N/NC(=O)CSc2cc(C)c(Br)cc2C)ccc1O,-0.102
9,N#CCSC1=Nc2ccccc2C2=NC(CCC(=O)N3CCN(c4ccccc4)CC3)C(=O)N12 (stereo not given),-0.493
10,Cc1ccc(SCc2nc3ccccc3n2CC(=O)Nc2c(C)cccc2C)cc1,-0.279
11,CCCOc1ccc(NC(=O)c2c(-c3ccccc3)noc2C)cc1,0.892
12,Cc1cc(C)c2c(N)c(C(=O)NCc3ccco3)sc2n1,1.04
13,O=C1CCCc2c1[nH]c1c(Br)cccc21,-1.04
14,CC(C)(C)c1ccc(CNc2ccc([N+](=O)[O-])cn2)cc1,-0.139
15,COc1ccc(/C(O)=C/C(=O)C(=O)NNC(=O)C(O)(c2ccccc2)c2ccccc2)cc1,-0.343
16,O=c1c2ccccc2nc2n1CCCS2,0.17
17,CCc1ccc(N(C(=O)c2csnn2)C(C(=O)NC(C)(C)C)c2ccncc2)cc1 (stereo not given),-0.302
18,CCn1c(NC(=O)C2CCCCC2)nc2ccccc21,0.0465
19,COc1ccccc1Nc1nc2nonc2nc1N1CCC(C)CC1,-0.00241
20,Cc1ccc(S(=O)(=O)/N=C(\Sc2ccccc2)c2ccccc2)cc1,-0.334
21,NC(=O)C1(N2CCCCC2)CCN(C(=O)CSc2nc3ccccc3o2)CC1,-0.0448
22,COc1ccc2c(=O)c3c(=O)n(Cc4ccco4)c(-c4ccco4)nc3oc2c1,-0.397
